Several values for one entry are separate records, joined by “and”; a condition that tells them apart may be missing. Equal values may be shown once. Among all 350,000 compounds or so, about 31,000 (8.9%) were called active. Inconclusive results, whose numbers are uncertain, are shown with a selection of clear calls. Calls come from the whole dose curve; as a rule, active = well fitted inhibition curve with a large enough effect; inconclusive = small, poorly fitted or top-dose-only effect; inactive = no such curve, though single readings can be large or run the other way. Potencies of inconclusive entries are doubtful fits and often do not repeat.
The compounds below were run against Histone-lysine N-methyltransferase EHMT2 (Homo sapiens) (UniProt Q96KQ7) (assay: qHTS Assay for Inhibitors of Histone Lysine Methyltransferase G9a). Conditions: G9a H3K9 monomethylation, AlphaScreen, 2 h; activity, negative = inhibition: at 59 µM (top of the series) unless noted.
Sequence of UniProt Q96KQ7 (Q96KQ7 whole entry, looked up): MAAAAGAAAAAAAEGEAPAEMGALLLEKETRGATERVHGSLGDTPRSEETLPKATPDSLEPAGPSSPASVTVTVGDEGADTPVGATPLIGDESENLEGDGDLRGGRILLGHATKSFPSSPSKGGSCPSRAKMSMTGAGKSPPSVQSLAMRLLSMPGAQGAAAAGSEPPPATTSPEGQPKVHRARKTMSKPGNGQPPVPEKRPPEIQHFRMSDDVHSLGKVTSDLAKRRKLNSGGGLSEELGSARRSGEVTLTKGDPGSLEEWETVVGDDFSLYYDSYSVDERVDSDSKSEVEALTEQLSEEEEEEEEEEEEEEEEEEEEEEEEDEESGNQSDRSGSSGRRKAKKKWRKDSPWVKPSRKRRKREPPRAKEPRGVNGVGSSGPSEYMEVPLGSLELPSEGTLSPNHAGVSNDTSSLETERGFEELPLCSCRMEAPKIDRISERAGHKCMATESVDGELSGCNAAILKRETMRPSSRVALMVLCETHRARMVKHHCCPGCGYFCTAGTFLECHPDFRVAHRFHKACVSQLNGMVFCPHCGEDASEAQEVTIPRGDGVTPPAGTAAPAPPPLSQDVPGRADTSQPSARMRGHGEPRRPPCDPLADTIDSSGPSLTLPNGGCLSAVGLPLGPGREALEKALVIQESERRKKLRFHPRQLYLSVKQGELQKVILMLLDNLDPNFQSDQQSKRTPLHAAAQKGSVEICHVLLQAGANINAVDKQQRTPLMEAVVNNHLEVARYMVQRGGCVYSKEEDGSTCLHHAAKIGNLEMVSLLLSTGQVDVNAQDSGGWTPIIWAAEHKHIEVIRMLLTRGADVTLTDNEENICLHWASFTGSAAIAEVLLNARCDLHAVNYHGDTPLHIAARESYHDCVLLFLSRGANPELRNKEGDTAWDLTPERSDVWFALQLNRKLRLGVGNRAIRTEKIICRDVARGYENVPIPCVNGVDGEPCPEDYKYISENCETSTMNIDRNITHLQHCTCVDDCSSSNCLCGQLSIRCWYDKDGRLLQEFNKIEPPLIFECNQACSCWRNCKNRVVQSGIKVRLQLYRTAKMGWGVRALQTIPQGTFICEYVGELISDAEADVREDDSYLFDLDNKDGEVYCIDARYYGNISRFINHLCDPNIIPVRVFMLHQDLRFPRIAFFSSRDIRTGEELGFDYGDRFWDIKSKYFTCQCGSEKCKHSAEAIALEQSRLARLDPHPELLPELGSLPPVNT
Outline: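 G9a (20 nM) was preincubated 15 min with compound, then reacted 2 h at room temperature with 500 nM biotin-H3K9 peptide and 20 µM SAM. Monomethyl-H3K9 detected by AlphaScreen using anti-H3K9me1 antibody.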
In the case of `Cc1ccc(CN2C(=O)C(CC(C)C)Nc3ncnc(N4CCN(c5ccccn5)CC4)c32)cc1` (centres undefined), the Potency is reported as inconclusive: 3.55 µM [inhibitor, single point].
`Cc1ccc(N2C(=O)C3C4C=CC(CC4)C3C2=O)cc1[N+](=O)[O-]` (centres undefined) was tested, and the activity, negative = inhibition was inactive: -46.4% [at 0.501 µM].
For `O=C(COC(=O)CCc1nc2ccccc2c(=O)[nH]1)Nc1ccc(Cl)cn1`, the Potency was inconclusive: 25.1 µM [inhibitor, single point].
In the case of `CCOc1ccc(NC(=S)N2CCN(CCN3C(=O)c4cccc5cccc(c45)C3=O)CC2)cc1`, the “activity, negative = inhibition” value is reported as inactive: 4.15% [at 102 µM].
In the case of `Cc1ccc(NC(=O)c2oc3ccc(S(=O)(=O)N4CCC5(CC4)OCCO5)cc3c2C)cc1Cl`, the “activity, negative = inhibition” value is reported as inactive: -4.72%.
With `Cc1ccc(CN2CCN(Cc3ccc4cc(F)ccc4n3)CC2CCO)o1` (centres undefined) the Potency was active: 56.2 µM.
For `O=C(O)CCCCCNC(=O)/C(=C\c1ccco1)NC(=O)c1ccco1`, the Potency was inconclusive: 14.1 µM [inhibitor, full curve, poor fit].
With `Cc1cc(C)nc(NC(=O)c2ccc([N+](=O)[O-])c(C)c2)n1` the Potency was inconclusive: 79.4 µM [inhibitor, single point].
With `N#Cc1ccc(OCC(=O)Nc2cccc(S(=O)(=O)NC3=NCCCCC3)c2)cc1` the Potency was inconclusive: 70.8 µM [inhibitor, partial curve, poor fit].
`NS(=O)(=O)c1ccc(-n2nncc2-c2ccco2)cc1` was tested, and the Potency was inconclusive: 100 µM [inhibitor, single point].
`Cc1ccc(Nc2nc3nonc3[nH]c2=O)cc1` was tested, and the Potency was inconclusive: 89.1 µM [inhibitor, partial curve, poor fit].
In the case of `COc1cc(C(c2c(C)[nH][nH]c2=O)c2c(C)[nH][nH]c2=O)ccc1OC(=O)c1ccccc1OC`, the Potency is reported as inconclusive: 3.98 µM [inhibitor, partial curve, poor fit].
In the case of `COc1ccc(CCNC(=O)CCN2C(=O)[C@@H]3Cc4ccccc4CN3C2=O)cc1`, the “activity, negative = inhibition” value is reported as inactive: 2.39% [at 102 µM].
For `CC1=NOC(=O)/C1=C/c1ccc(O)c(Br)c1`, the Potency was active: 44.7 µM.
`CCOC(=O)C(C)NC(=O)c1c2c(nc3ccccc13)C(=O)N(C1CCCCC1)C2` (centres undefined) was tested, and the “activity, negative = inhibition” value was inactive: 2.42%.
For `CC(Oc1ccccc1)C(=O)OCC(=O)NC(=O)NC1CCCCC1` (centres undefined), the activity, negative = inhibition was inactive: 7.41% [at 12.7 µM].
For `COc1ccc2c(c1)[N+](C)(C)C(C)(C)C=C2C`, the Potency was inconclusive: 28.2 µM [inhibitor, partial curve, poor fit].
For `O=C(Nc1ccc(F)cc1)C1CCCN(C2=NS(=O)(=O)c3ccccc32)C1` (centres undefined), the Potency was inconclusive: 7.08 µM [inhibitor, single point].
For `O=C1CC(Sc2ncccn2)C(=O)N1c1ccccc1C(F)(F)F` (centres undefined), the Potency was inconclusive: 6.31 µM [inhibitor, single point].
`CC(NC(=S)NCCCN1CCOCC1)C12CC3CC(CC(C3)C1)C2` (centres undefined) was tested, and the Potency was inconclusive: 89.1 µM [inhibitor, single point].
`O=C(Nc1cc(F)ccc1F)c1cccc(-n2cnnn2)c1` was tested, and the Potency was inconclusive: 89.1 µM [inhibitor, single point].
In the case of `CNC(=O)NNC(=O)c1nc(-c2ccccc2)c(C)o1`, the Potency is reported as inconclusive: 50.1 µM [inhibitor, partial curve, poor fit].
`O=C(Nc1ccccc1N1CCOCC1)c1ccc(N2CCOCC2)c([N+](=O)[O-])c1` was tested, and the Potency was inconclusive: 50.1 µM [inhibitor, partial curve, poor fit].
`Cc1ccc(-c2cc(-c3ccccc3Cl)c(C#N)c(N)n2)o1` was tested, and the Potency was inconclusive: 12.6 µM [inhibitor, single point].
In the case of `CCOC(=O)C1=C(COC(=O)CCOc2ccccc2)NC(=O)NC1C` (centres undefined), the activity, negative = inhibition is reported as inactive: 27.4% [at 12.7 µM].
`O=C(Cc1cccs1)N1CCC(c2nc3c(nnn3Cc3ccc(F)cc3)c(=O)[nH]2)CC1` was tested, and the Potency was inconclusive: 39.8 µM [inhibitor, partial curve, poor fit].
With `CC1CCCCC1NC(=O)/C(C#N)=C/C=C/c1ccccc1[N+](=O)[O-]` (centres undefined) the Potency was inconclusive: 3.16 µM [inhibitor, partial curve, poor fit].
In the case of `CC1CC1C(=O)OCc1cc(=O)n2cc(Br)ccc2n1` (centres undefined), the Potency is reported as inconclusive: 79.4 µM [inhibitor, partial curve, poor fit].
`CC(C)(C)c1ccc(OCCC(=O)OCC(=O)NC2CC2)cc1` was tested, and the activity, negative = inhibition was inactive: 23.1% [at 12.7 µM].
For `C=CCn1c(CC(=O)OC)csc1=Nc1ccc(C(C)=O)cc1`, the Potency was inconclusive: 44.7 µM [inhibitor, partial curve, poor fit].
For `O=c1[nH]c(CN2CCN(c3ccc(O)cc3)CC2)nc2scc(-c3ccc(Cl)cc3)c12`, the Potency was active: 3.16 µM.
With `O=C1C2C3C=CC(CC3)C2C(=O)N1c1ccc2c(c1)OCO2` (centres undefined) the Potency was inconclusive: 39.8 µM [inhibitor, single point].
In the case of `FC(F)(F)c1cccc(OCCOCCn2cncn2)c1`, the Potency is reported as inconclusive: 3.16 µM [inhibitor, single point].
With `CCOC(=O)COc1ccc(C(=O)CC)cc1OC` the “activity, negative = inhibition” value was inactive: 6.82% [at 102 µM].
With `Clc1ccc(-n2cccc2CN2CCc3c([nH]c4ccccc34)C2c2ccccn2)nc1` (centres undefined) the Potency was active: 17.8 µM.
`C=CC[N+]1(CC=C)CCOCC1` was tested, and the Potency was inconclusive: 79.4 µM [inhibitor, single point].
In the case of `CC(C)Cn1c(-c2ccc(Cl)cc2)cnc1SCC(=O)N1CCOCC1`, the Potency is reported as inconclusive: 89.1 µM [inhibitor, single point].
`CCCc1cc(=O)[nH]c(SCC(=O)N(CC)C2CCS(=O)(=O)C2)n1` (centres undefined) was tested, and the Potency was inconclusive: 39.8 µM [inhibitor, single point].
For `Cc1ccc(C(=O)Nc2nc(=O)n(C(=O)c3ccccc3C)s2)cc1`, the Potency was inconclusive: 89.1 µM [inhibitor, single point].
In the case of `CCOc1ccc(/C=C/C(=O)Nc2ccc3nc(N(CC)CC)cc(C)c3c2)cc1OC`, the Potency is reported as inconclusive: 28.2 µM [inhibitor, partial curve, poor fit].
With `Cc1ccc(CS(=O)(=O)c2ncc(Cl)c(C(=O)Nc3nnc(C(C)C)s3)n2)cc1` the Potency was active: 10 µM and active: 44.7 µM.
With `COc1ccc(N(C)C(=O)CCC(=O)Nc2ccc3nc(N4CCOCC4)cc(C)c3c2)c(OC)c1` the Potency was inconclusive: 89.1 µM [inhibitor, single point].
For `CCOC(=O)COc1ccc(Br)cc1/C=C/c1[nH]c(=O)[nH]c(=O)c1[N+](=O)[O-]`, the Potency was inconclusive: 50.1 µM [inhibitor, partial curve].
`COC(=O)c1ccccc1S(=O)(=O)N(Cc1ccco1)Cc1cc2cc(OC)ccc2[nH]c1=O` was tested, and the activity, negative = inhibition was inconclusive: -63.6% [inhibitor].
In the case of `CC(C)(C)c1cc2nc3c(c(=O)n2[nH]1)CN(Cc1ccccc1)C3=O`, the Potency is reported as inconclusive: 79.4 µM [inhibitor, partial curve, poor fit].
For `C=CCn1c(O)c(N=NC(=O)c2ccccc2NS(=O)(=O)c2cccs2)c2ccccc21`, the Potency was active: 44.7 µM.
With `COc1ccc(/C(O)=C2/C(=O)C(=O)N(CCCN3CCOCC3)C2c2ccc(C)cc2)cc1` (centres undefined) the Potency was inconclusive: 79.4 µM [inhibitor, single point].
In the case of `O=[N+]([O-])c1cccc(CN2CCN(Cc3ccco3)CC2)c1`, the Potency is reported as active: 7.94 µM.
With `CC(C)CN(C(=O)COC(=O)c1c2c(nc3ccccc13)CCC2)c1c(N)n(Cc2ccccc2)c(=O)[nH]c1=O` the Potency was inconclusive: 89.1 µM [inhibitor, single point].
For `C=CCSc1nnc(-c2ccccc2N=Cc2c(C)[nH]n(-c3ccccc3)c2=O)c(=O)[nH]1`, the Potency was inconclusive: 79.4 µM [inhibitor, single point].
With `Oc1c(C(c2ccc(F)cc2)N2CCN(Cc3ccccc3)CC2)sc2nc(-c3ccco3)nn12` (centres undefined) the Potency was inconclusive: 12.6 µM [inhibitor, partial curve].
In the case of `Cc1cc(N2CCCC2)ccc1/C=N/n1cnnc1`, the Potency is reported as inconclusive: 79.4 µM [inhibitor, single point].
`CC(/C=C/c1ccco1)=N/NC(=O)C1COc2ccccc2O1` (centres undefined) was tested, and the Potency was active: 56.2 µM.
For `Cc1cc(C(=O)Nc2cccc(NC(=O)c3ccco3)c2)ccc1[N+](=O)[O-]`, the Potency was inconclusive: 89.1 µM [inhibitor, single point].
In the case of `Cc1cccc(Nc2nc(N)nc(CN3CCN(c4ccccc4)CC3)n2)c1`, the Potency is reported as inconclusive: 35.5 µM [inhibitor, full curve].
`Cc1ccc2nc(-c3ccc(NC(=O)COc4ccc(Br)cc4Br)cc3)sc2c1` was tested, and the Potency was inconclusive: 22.4 µM [inhibitor, partial curve, poor fit].
With `O=C(c1cn(-c2ccccc2)nc1-c1cccs1)N1CCN(c2ccc(F)cc2)CC1` the Potency was inconclusive: 50.1 µM [inhibitor, partial curve, poor fit].
For `CCOc1cc(N2CCOCC2)c(OCC)cc1NC(=O)COC(=O)c1cc(C)cc(C)c1`, the Potency was inconclusive: 3.55 µM [inhibitor, partial curve, poor fit].
With `Cc1cc(-c2ccccc2)nc2oc(C(=O)NN)c(N)c12` the “activity, negative = inhibition” value was inactive: 24.1%.
In the case of `COc1cc(NS(=O)(=O)c2ccc(NC(=O)c3ccc(Cl)cc3Cl)cc2)nc(OC)n1`, the “activity, negative = inhibition” value is reported as inactive: -39.7%.
In the case of `Cc1cc(N2CCN(S(=O)(=O)c3ccc(C)c(C)c3)CC2)c2ccccc2n1`, the activity, negative = inhibition is reported as inactive: 22.6% [at 12.7 µM].
With `COc1cccc(OC)c1C(=O)Nc1ccc(N2CCCCC2)cc1` the Potency was inconclusive: 25.1 µM [inhibitor, single point].
For `O=C(NCc1ccc(F)cc1)C(=O)NCC(c1ccc2c(c1)OCO2)N1CCOCC1` (centres undefined), the “activity, negative = inhibition” value was inactive: -0.575%.
For `CCc1ccc(OCC(=O)Nc2ncn[nH]2)cc1`, the Potency was inconclusive: 39.8 µM [inhibitor, partial curve, poor fit].

— PubChem BioAssay AID504332 (National Center for Advancing Translational Sciences (NCATS), 2011)
% is set by controls: 0 for no effect and ±100 for the full control effect; potency is the fitted concentration of half-maximal effect; tags give direction and shape of the fitted curve.
Note: nearly all actives have a fitted effect of over 75% in size.
